Results from ChEMBL document CHEMBL4888484, “Replenishing the malaria drug discovery pipeline: Screening and hit evaluation of the MMV Hit Generation Library 1 (HGL1) against asexual blood stage Plasmodium falciparum ,using a nano luciferase reporter read-out” (2022).
In all, about 150,000 compounds went through this assay and about 540 (0.36%) showed an effect of 50% or more. Some of the results follow.

What follows are compounds tested on Plasmodium falciparum (assay: Primary screen in NF54 nanoGlo assay, in single point, at 2uM, 72h; a lower Z score goes with more inhibition). Conditions: timepoint 72 hour.
Format: functional, Erythrocyte

Structure (SMILES)	% Inhibition [%]	Z score
CC(NC(=O)NC(C)C(=O)NCc1ccccc1)C(=O)NCc1ccccc1 (stereo not drawn)	-2	0.34
COc1ccc(-c2noc(CS(=O)(=O)Cc3cc(C)on3)n2)cc1OC	-12	1.86
Cc1cccc(NC(=O)CN2CCN(S(=O)(=O)c3cnn(C)c3C)CC2)c1C	-47	5.54
CN(CCO)C(=O)N[C@H](c1ccccc1)c1nc(C(C)(C)C)cs1	12	-1.6
Cc1noc(C)c1CC(=O)N1CCC(N2C(=O)COC2=O)CC1	-7	1.42
COCCOc1ccc(F)cc1NC(=O)c1ccc(-n2nc(C)nc2C)cc1	1	-0.14
C=CCC[C@@H](CN1CCCOCC1)Oc1cc(C#N)ccn1	4	-0.72
CC[C@](NC(=O)c1cccc2cc[nH]c12)(C(=O)O)c1ccccc1	1	-0.16
Cc1ccc(C(O)CNC2CN(Cc3ccccc3)CCC2C)cc1 (stereo not drawn)	17	-2.03
NC(=O)N1CCC[C@H]1C(=O)N1CCCN(C(=O)C(F)(F)F)CC1	2	-0.46
O=C(c1nccc2ccccc12)N1CC(CF)C1	-15	1.88
CCn1nc(-c2ccc(OC)c(OC)c2)c2c(=O)n(C)c(=O)[nH]c21	-6	0.86
O=C1N(C2CCCCC2)C[C@H]2CN(Cc3ccc(F)cc3)CCN12	-8	1.21
c1nc(CN2CC[C@H](N3CCCCC3)C2)cs1	-20	1.87
COC(=O)[C@H]1CN(C(=O)c2cc(C)sn2)C[C@@H]1c1ccc(O)cc1	-18	3.5
CCc1ccc(NCc2cn3ccccc3c2C#N)cc1	0	0.03
CCn1c([C@H]2CC(=O)N(Cc3ccccc3)C2)n[nH]c1=O	0	0.06
CC1CC1C(=O)Nc1cc(S(=O)(=O)N2CCOCC2)ccc1Oc1ccc(F)cc1 (stereo not drawn)	6	-0.5
CC(=O)c1c(/C=C/C2CCCCC2)cnn1C	-10	0.92
CC(C)(CNC(=O)c1cc(-c2cccc(Br)c2)nc2ccccc12)CNC(=O)c1cc(-c2cccc(Br)c2)nc2ccccc12	-35	4.1
O=C(NCc1ccco1)c1c[nH]c(=O)n(Cc2ccc3c(c2)OCO3)c1=O	-10	1.72
COCC1CCN(CC(=O)N2CC(=O)Nc3ccccc32)CC1	-2	0.26
CC(=O)NC1CCC(N[C@@H](C)COc2ccccc2C)CC1 (stereo partly drawn)	2	-0.36
O=C(Nc1nc2c(s1)CN(C(=O)Nc1ccc(Cl)c(Cl)c1)CC2)c1cnccn1	-5	0.67
Cc1n[nH]nc1C(=O)N[C@H](c1ccccc1)c1cc2ccccc2o1	-2	0.23
O=C1CCC[C@H](CC(=O)N2CCOc3c2ccc(F)c3F)N1	-9	0.76
C[C@H]1Cc2ccccc2N1C(=O)c1ccc(=O)n(CC(=O)N2CCN(c3ccccc3)CC2)n1	0	0.06

Structure (SMILES)	% Inhibition [%]	Z score
CCC[C@H](N)C(=O)N1CCc2onc(-c3cccc4ccccc34)c2C1	17	-2.29
Cc1nc2cc(C(=O)N(C)C[C@@H](c3cccs3)N3CCOCC3)ccc2n1C	-6	0.69
Fc1ccc(CN2CCn3nc(CNc4cnccn4)cc3C2)cc1F	-12	1.45
CCC(CC)Nc1ccncc1NC(=O)c1nc(C)oc1C	-6	1.24
O=C(c1cc(=O)[nH]c2c1CCCC2)N1CCCn2nncc2C1	1	-0.15
COc1c(CN(C)[C@@H]2COC[C@H]2O)c(C)nn1C	-18	1.97
CCc1ccc(NC(=O)Cn2c(=O)[nH]c3c(oc4ccccc43)c2=O)cc1	-5	0.74
CCn1nc(C)c([C@H](C)NCC2=Cc3cc(Cl)ccc3OC2)c1C	0	-0.03
Cc1nn(C)cc1-c1nc(-c2ccco2)nn1C(C)(C)C	-10	2.08
O=C(N1CCOCC1)N1CC(Oc2cccnc2)C1	-2	0.39
CC1CC1C(=O)NCCCC1CCCCC1 (stereo not drawn)	-7	1.3
CC(=O)Nc1ccc(CN(C)[C@H]2CCCN(CCCc3ccccc3)C2)cc1	-9	0.79
NC(=O)[C@]12CCC[C@H]1CN(C(=O)NCc1ccc(C3CC3)cc1F)C2	-4	0.7
CN(CC(C)(C)CO)C(=O)Cc1ccc(O)c(F)c1	-5	0.93
COC(=O)c1ccc(NC(=O)N(Cc2ccncc2)C2CCCCC2)cc1	-3	0.49
N#Cc1c(NC(=O)c2ccc(Cc3ccccc3)cc2)sc2c1CCC2	5	-0.82
O=C(COCc1cc(-c2ccco2)on1)NCc1ccc2c(c1)OCO2	2	-0.29
CCc1nnc(CNc2nc(C)ncc2CC)s1	-10	1.25
C[C@@H]1CN(CC(O)C(F)(F)F)CCN1C(=O)OC(C)(C)C (stereo partly drawn)	2	-0.39
CC(CC(=O)NC(C)c1ncon1)c1ccc(F)cc1F (stereo not drawn)	-3	0.44
CC(C)(C)n1cc(C(=O)NCc2nnc[nH]2)cn1	-2	0.22
COCc1ccc(C(=O)N2CCc3[nH]c(-c4cccnc4)nc3C2)s1	-2	0.38
Cc1nc(C)n(CC2CCCCN2CC(O)CN2CCOCC2)n1 (stereo not drawn)	-13	1.1
O=C1N[C@@H](C2CCCCC2)C(=O)N2CCC[C@H]12	-15	1.55
Cc1c(S(=O)(=O)N2CC(F)CC2CO)oc2ccc(F)cc12 (stereo not drawn)	-18	1.82
Cn1nccc1-c1ccc(NC(=O)NC[C@H](O)C2CCCCC2)nn1	-7	1.26
O=C(NS(=O)(=O)[C@H]1CC2CCC1CC2)c1cncc2ccccc12	10	-1.8
